Where a chain is given by its changes, count along the chain named. Some of the results follow.
T1: RBFOX1 RRM RbFoxmut (Fox-RRM*) (Homo sapiens, UniProt Q9NWB1 109-208, R118D;E147R;N151S;E152T)
T1 sequence: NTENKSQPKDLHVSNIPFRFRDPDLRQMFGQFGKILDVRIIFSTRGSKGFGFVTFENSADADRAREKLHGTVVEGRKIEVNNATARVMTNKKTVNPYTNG

B1: ACGCUGC (DNA:RNA)
RNA: GGGAGACCGGAAUUCAGAUUGUCCACGCUGCUUAAAUCCCGUCGUAGCCACCA
DNA 1: CAATCTGAATTCCGGTCTCCC
DNA 2: TGGTGGCTACGACGGGATT
B2: CAGCAUC (DNA:RNA)
RNA: B1 RNA with A25C, C26A, U29A, G30U
DNA 1: CAATCTGAATTCCGGTCTCCC
DNA 2: TGGTGGCTACGACGGGATT
B3: AUCUCGA (DNA:RNA)
RNA: B1 RNA with C26U, G27C, C28U, U29C, C31A
DNA 1: CAATCTGAATTCCGGTCTCCC
DNA 2: TGGTGGCTACGACGGGATT
B4: CCAACCC (DNA:RNA)
RNA: B1 RNA with A25C, G27A, C28A, U29C, G30C
DNA 1: CAATCTGAATTCCGGTCTCCC
DNA 2: TGGTGGCTACGACGGGATT
B5: AACGUUC (DNA:RNA)
RNA: B1 RNA with C26A, G27C, C28G, G30U
DNA 1: CAATCTGAATTCCGGTCTCCC
DNA 2: TGGTGGCTACGACGGGATT
B6: GUAUCGG (DNA:RNA)
RNA: B1 RNA with A25G, C26U, G27A, C28U, U29C, C31G
DNA 1: CAATCTGAATTCCGGTCTCCC
DNA 2: TGGTGGCTACGACGGGATT
B7: AGAUCGA (DNA:RNA)
RNA: B1 RNA with C26G, G27A, C28U, U29C, C31A
DNA 1: CAATCTGAATTCCGGTCTCCC
DNA 2: TGGTGGCTACGACGGGATT
B8: AUCGUCA (DNA:RNA)
RNA: B1 RNA with C26U, G27C, C28G, G30C, C31A
DNA 1: CAATCTGAATTCCGGTCTCCC
DNA 2: TGGTGGCTACGACGGGATT
B9: GUCACGU (DNA:RNA)
RNA: B1 RNA with A25G, C26U, G27C, C28A, U29C, C31U
DNA 1: CAATCTGAATTCCGGTCTCCC
DNA 2: TGGTGGCTACGACGGGATT
B10: UAGCACA (DNA:RNA)
RNA: B1 RNA with A25U, C26A, U29A, G30C, C31A
DNA 1: CAATCTGAATTCCGGTCTCCC
DNA 2: TGGTGGCTACGACGGGATT
B11: CGAUUUA (DNA:RNA)
RNA: B1 RNA with A25C, C26G, G27A, C28U, G30U, C31A
DNA 1: CAATCTGAATTCCGGTCTCCC
DNA 2: TGGTGGCTACGACGGGATT
B12: AUUAAGC (DNA:RNA)
RNA: B1 RNA with C26U, G27U, C28A, U29A
DNA 1: CAATCTGAATTCCGGTCTCCC
DNA 2: TGGTGGCTACGACGGGATT
B13: UAGUAGC (DNA:RNA)
RNA: B1 RNA with A25U, C26A, C28U, U29A
DNA 1: CAATCTGAATTCCGGTCTCCC
DNA 2: TGGTGGCTACGACGGGATT
B14: UAGGCGG (DNA:RNA)
RNA: B1 RNA with A25U, C26A, C28G, U29C, C31G
DNA 1: CAATCTGAATTCCGGTCTCCC
DNA 2: TGGTGGCTACGACGGGATT
B15: GGUAAUA (DNA:RNA)
RNA: GGGAGACCGGAAUUCAGAUUGUCCGGUAAUAUUAAAUCCCGUCGUAGCCACCA
DNA 1: CAATCTGAATTCCGGTCTCCC
DNA 2: TGGTGGCTACGACGGGATT
B16: AAACUGG (DNA:RNA)
RNA: B1 RNA with C26A, G27A, C31G
DNA 1: CAATCTGAATTCCGGTCTCCC
DNA 2: TGGTGGCTACGACGGGATT
B17: UGUAACA (DNA:RNA)
RNA: B15 RNA with G25U, U30C
DNA 1: CAATCTGAATTCCGGTCTCCC
DNA 2: TGGTGGCTACGACGGGATT
B18: AUACAUC (DNA:RNA)
RNA: B1 RNA with C26U, G27A, U29A, G30U
DNA 1: CAATCTGAATTCCGGTCTCCC
DNA 2: TGGTGGCTACGACGGGATT
B19: AGAGUUA (DNA:RNA)
RNA: B15 RNA with G25A, U27A, A28G, A29U
DNA 1: CAATCTGAATTCCGGTCTCCC
DNA 2: TGGTGGCTACGACGGGATT
B20: UAAGAUU (DNA:RNA)
RNA: B15 RNA with G25U, G26A, U27A, A28G, A31U
DNA 1: CAATCTGAATTCCGGTCTCCC
DNA 2: TGGTGGCTACGACGGGATT
B21: GGCCUUG (DNA:RNA)
RNA: B15 RNA with U27C, A28C, A29U, A31G
DNA 1: CAATCTGAATTCCGGTCTCCC
DNA 2: TGGTGGCTACGACGGGATT
B22: GCUCACU (DNA:RNA)
RNA: B15 RNA with G26C, A28C, U30C, A31U
DNA 1: CAATCTGAATTCCGGTCTCCC
DNA 2: TGGTGGCTACGACGGGATT
B23: UGAACUG (DNA:RNA)
RNA: B15 RNA with G25U, U27A, A29C, A31G
DNA 1: CAATCTGAATTCCGGTCTCCC
DNA 2: TGGTGGCTACGACGGGATT
B24: CUUUUCG (DNA:RNA)
RNA: B1 RNA with A25C, C26U, G27U, C28U, G30C, C31G
DNA 1: CAATCTGAATTCCGGTCTCCC
DNA 2: TGGTGGCTACGACGGGATT
B25: GACGCUG (DNA:RNA)
RNA: B15 RNA with G26A, U27C, A28G, A29C, A31G
DNA 1: CAATCTGAATTCCGGTCTCCC
DNA 2: TGGTGGCTACGACGGGATT
B26: GAUAAAA (DNA:RNA)
RNA: B15 RNA with G26A, U30A
DNA 1: CAATCTGAATTCCGGTCTCCC
DNA 2: TGGTGGCTACGACGGGATT
B27: UAGCCUC (DNA:RNA)
RNA: B1 RNA with A25U, C26A, U29C, G30U
DNA 1: CAATCTGAATTCCGGTCTCCC
DNA 2: TGGTGGCTACGACGGGATT
B28: UAAUAGG (DNA:RNA)
RNA: B1 RNA with A25U, C26A, G27A, C28U, U29A, C31G
DNA 1: CAATCTGAATTCCGGTCTCCC
DNA 2: TGGTGGCTACGACGGGATT
B29: GCCUCGU (DNA:RNA)
RNA: B1 RNA with A25G, G27C, C28U, U29C, C31U
DNA 1: CAATCTGAATTCCGGTCTCCC
DNA 2: TGGTGGCTACGACGGGATT
B30: GUAGUGG (DNA:RNA)
RNA: B1 RNA with A25G, C26U, G27A, C28G, C31G
DNA 1: CAATCTGAATTCCGGTCTCCC
DNA 2: TGGTGGCTACGACGGGATT
B31: CAAACCG (DNA:RNA)
RNA: B15 RNA with G25C, G26A, U27A, A29C, U30C, A31G
DNA 1: CAATCTGAATTCCGGTCTCCC
DNA 2: TGGTGGCTACGACGGGATT

target: T1, RBFOX1 RRM RbFoxmut (Fox-RRM*); experiment: EMSA; HiTS-Eq, 1 nM pool, 10 min; buffer printed only for the single-RNA assays: 10 mM Tris pH 7.5, 150 mM NaCl, 3.4 mM EDTA, 0.001% NP-40, 30 C; settings: tags: His6 N-terminal (pET28a); label: 5' 32P
Method in brief: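 Purified wild-type or mutant RbFox RRM at increasing concentrations was equilibrated with 1 nM of 5′-radiolabelled RNA carrying 7 randomized nucleotides for 10 min in 50 µL. Unbound RNA was separated by 8% native PAGE and sequenced. Relative association constants came from read-count changes of each RNA species compared with the control reaction, normalised to the cognate motif.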

| Binder | binding signal |
| --- | --- |
| B1 | 0.109 KA relative to UGCAUGU |
| B2 | 0.307 KA relative to UGCAUGU |
| B3 | 0.0871 KA relative to UGCAUGU |
| B4 | 0.0844 KA relative to UGCAUGU |
| B5 | 0.0756 KA relative to UGCAUGU |
| B6 | 0.156 KA relative to UGCAUGU |
| B7 | 0.0898 KA relative to UGCAUGU |
| B8 | 0.133 KA relative to UGCAUGU |
| B9 | 0.12 KA relative to UGCAUGU |
| B10 | 0.0689 KA relative to UGCAUGU |
| B11 | 0.101 KA relative to UGCAUGU |
| B12 | 0.0979 KA relative to UGCAUGU |
| B13 | 0.0837 KA relative to UGCAUGU |
| B14 | 0.111 KA relative to UGCAUGU |
| B15 | 0.0761 KA relative to UGCAUGU |
| B16 | 0.0705 KA relative to UGCAUGU |

| Binder | binding signal |
| --- | --- |
| B17 | 0.0864 KA relative to UGCAUGU |
| B18 | 0.0828 KA relative to UGCAUGU |
| B19 | 0.154 KA relative to UGCAUGU |
| B20 | 0.0681 KA relative to UGCAUGU |
| B21 | 0.478 KA relative to UGCAUGU |
| B22 | 0.0649 KA relative to UGCAUGU |
| B23 | 0.0738 KA relative to UGCAUGU |
| B24 | 0.092 KA relative to UGCAUGU |
| B25 | 0.0687 KA relative to UGCAUGU |
| B26 | 0.0514 KA relative to UGCAUGU |
| B27 | 0.0891 KA relative to UGCAUGU |
| B28 | 0.076 KA relative to UGCAUGU |
| B29 | 0.224 KA relative to UGCAUGU |
| B30 | 0.108 KA relative to UGCAUGU |
| B31 | 0.0853 KA relative to UGCAUGU |
